# The whole screen tested about 420,000 compounds, of which about 64,000 (15%) were called active. Inconclusive means that the source gave no clear call. Such entries were picked first, then a sample of the others. The call rests on the fitted dose curve; in most records, active means well fitted inhibition curve with a large enough effect; inconclusive means small, poorly fitted or top-dose-only effect; inactive means flat fitted curve, though single readings scatter. Potencies of inconclusive entries are left out as doubtful fits.
# Assay: qHTS for Inhibitors of human tyrosyl-DNA phosphodiesterase 1 (TDP1): qHTS in cells in absence of CPT; further: nearly all actives have a fitted effect of over 55% in size
# Details: DT40 Tdp1-/- hTDP1 cells, no CPT, ATP luminescence, 48 h; activity change, negative = growth inhibition: at 46.2 µM (top of the series) unless noted
# How it was run: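 Cells were dispensed at 400 per well, compounds added by pin tool, plates incubated ≥48 hr at 37 °C, then CellTiter-Glo added for 30 min at room temperature before luminescence reading. Line: DT40 Tdp1-/- complemented with hTDP1; camptothecin omitted.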
# On the % scale 0 is the no-effect control and ±100 the full control effect; potency means the concentration at half of the fitted maximal effect; tags describe the fitted curve by direction and shape.
Compound,Potency,"activity change, negative = growth inhibition"
O=C(C=Cc1ccc(Cl)s1)c1ccc(Cl)s1,"inconclusive [inhibitor, single point]",–
CN(C)C(=O)c1ccc(-n2nc(C(F)(F)F)c3c2CCCC3)cc1,"inconclusive [inhibitor, partial curve]",–
CCOC(=O)Cc1csc(NC(=O)c2cccc(OC)c2)n1,"inconclusive [inhibitor, single point]",–
O=C1/C(=C\c2cccc(O)c2)SC(=S)N1Cc1ccccc1,"inconclusive [inhibitor, single point]",–
Cc1ccnc(NC(=O)COC(=O)c2ccc(F)cc2F)n1,–,inactive: -10.1%
COc1cc(SC)ccc1C(=O)NC1CCCCC1,"inconclusive [inhibitor, partial curve, poor fit]",–
COc1ccc(N(C)S(=O)(=O)c2cccc(C(=O)Nc3nc(C)c(C(C)=O)s3)c2)cc1,"inconclusive [inhibitor, partial curve]",–
COc1cccc(CNC(=O)Cn2c(=O)ccc3cc(S(=O)(=O)N4CCC(C)CC4)ccc32)c1,"inconclusive [inhibitor, single point]",–
Cc1ccc(NC(=O)CSc2nnnn2-c2ccc3c(c2)OCO3)cc1C,"inconclusive [inhibitor, partial curve, poor fit]",–
COc1cccc(C(=O)NCc2ccc3c(c2)CCN3C(=O)c2ccncc2)c1,"inconclusive [inhibitor, single point]",–
COc1ccc(CN(C)CC(=O)Nc2c(C)cccc2C)c(OC)c1,"inconclusive [inhibitor, single point]",–
COc1ccc(S(=O)(=O)N2CCCCCC2)cc1C(=O)N(C)CC(=O)Nc1ccc(F)cc1,"inconclusive [inhibitor, partial curve, poor fit]",–
C[C@@H]1C(=O)OC[C@H]1NC(=O)OCc1ccccc1,–,inactive: 16.2%
O=C(NCC1CCCO1)C(=O)N/N=C/c1ccc(OCc2ccccc2Cl)cc1 (centres undefined),–,inactive: -29.5%
COc1ccc(NC(=O)c2ccc3c(c2)CCN3S(=O)(=O)c2ccccc2)c(OC)c1,"inconclusive [inhibitor, partial curve]",–
Cc1cc(NC(=O)CSc2cc(Cl)ccc2Cl)n(-c2ccccc2)n1,–,inactive: -28.3%
O=S(=O)(c1ccc(NC(=S)N2CCN(c3ccccc3F)CC2)cc1)N1CCOCC1,active: 18.4 µM,–
COc1ccccc1-c1nc(SCC(=O)c2ccccc2)n[nH]1,active: 16.4 µM,–
COc1ccc(C(=O)NC(=S)NNC(=O)COc2ccccc2)cc1,"inconclusive [inhibitor, single point]",–
